In all, about 150,000 compounds went through this assay and about 540 (0.36%) showed an effect of 50% or more. The list shows a part of the results.
Each compound was assayed on Plasmodium falciparum (assay: Primary screen in NF54 nanoGlo assay, in single point, at 2uM, 72h; a lower Z score goes with more inhibition). Conditions: timepoint 72 hour.
Format: functional, Erythrocyte

SMILES	% Inhibition [%]	Z score
Cc1cc(O)cc(=O)n1CCCC(=O)N[C@H](c1nc2ccccc2n1C(C)C)C(C)C	-12	1.56
COc1cccc(Cn2c(C(=O)NC3CCCCC3)cc3ccsc32)c1	-4	0.47
OC(c1ccccn1)C(O)c1ccccn1 (stereo unspecified)	-2	0.27
COc1ccc(CCC(=O)N2CC3(C[C@H](N4CCCCC4)CO3)C2)cc1	-6	0.93
O=C(COC(=O)c1ccc2ccccc2c1)Nc1ccccc1C(F)(F)F	-4	0.57
Cc1cccc(-c2noc(-c3ccc(N4CCc5ccccc5C4)nc3)n2)c1	2	-0.24
Cc1cnc(CCNC(=O)NCCC(=O)N(C)C)s1	-7	0.96
O=C(CCCc1ccccc1)N1CCN(c2cc(N3CCCC3)ncn2)CC1	6	-0.85
CCc1cccc(NC(=O)c2cc3nccc(-c4ccc(OC)c(OC)c4)n3n2)c1	-3	0.37
O=C(Cc1ccon1)N1CC(S(=O)(=O)N2CCc3ccccc32)C1	-12	2.18
Cc1cc(C)c(CNC(=O)c2cnc(OC(C)C)c(Cl)c2)c(=O)[nH]1	-13	2.03
CC(=O)N(C)c1nc(COc2cccc(S(C)(=O)=O)c2)cs1	-4	0.47
CCc1cccc(OC2CN(c3cc([C@H]4C[C@H](N)C4)ncn3)C2)c1	-5	1.07
Cc1n[nH]c(C)c1NC(=O)CN[C@H](c1cccs1)C(C)(C)C	-3	0.66
N#CCNC(=O)c1ccccc1Br	-5	0.85
Cc1ccc(C(C)C)c(Oc2nc(-c3ccccc3O)nc3ccccc23)c1	26	-2.99
Cn1nc(C2CC2)nc1CN1CCOc2c(Cl)cc(Br)cc21	-5	0.6
CN(C)c1ccc(CN2CC[C@H](O)CC(C)(C)C2)cn1	-19	2.47
CN(C)[C@@H]1CN(Cc2cc(F)c(F)cc2F)CC[C@@H]1CO	1	-0.09
COCc1nc(NC[C@@H](c2sccc2C)N(C)C)c2cnn(C)c2n1	2	-0.27
COc1ncc(Cl)c(N2C[C@H](CS(N)(=O)=O)[C@@H](C)C2)n1	-12	2.37
O=C(CCCc1cn[nH]c1)N[C@@H]1COCC[C@@H]1Oc1cccc(F)c1	-24	2.46
O=C(N[C@H]1CCN(c2nccs2)C1)c1cc(C2CC2)on1	-8	1.52
